# In PubChem BioAssay (Tox21):
# This list was built around the results that the source calls inconclusive (neither active nor inactive); the mix of calls is not that of the screen. For some assays here: No potency is given beside an inconclusive call; the fits are too rough. The source made the active and inactive calls. Unless noted, calls come from the whole dose curve; as a rule, active = well fitted curve in the direction sought with a large enough effect in the repeat runs; inconclusive = weak or mixed curves; inactive = no such curve, though single readings can be large; an effect the other way counts as inactive or inconclusive.
# Experiments:
# [1] = qHTS assay to identify small molecule that activate the aryl hydrocarbon receptor (AhR) signaling pathway - cell viability counter screen (AID 743086); note: nearly all actives have a fitted effect of over 45% in size
# Procedure, shortened: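 HepG2-AhR-luc (HG2L7.5c1) cells, 4000/well, treated 24 h at 37 C with compound; viability measured as CellTiter-Fluor fluorescence after 30 min in the same wells as the luciferase read.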
# [2] = target: Peroxisome proliferator-activated receptor gamma (Homo sapiens) (UniProt P37231); assay: qHTS assay to identify small molecule agonists of the peroxisome proliferator-activated receptor gamma (PPARg) signaling pathway (AID 743094; active = well fitted activation curve with a large enough effect in the signal ratio in the repeat runs, not every such curve was filed as active; inconclusive = weak or mixed curves, or effect the other way; inactive = no such curve, though single readings can be large or run the other way; the % refers to the signal ratio; for activation: % is set by controls: 0 for no effect and ±100 for the full control effect); details: HEK293H PPARg-UAS-bla, beta-lactamase FRET ratio, 17 h; activation: at 57 µM (top of the series) unless noted
# Chain of UniProt P37231 (P37231 whole entry, looked up): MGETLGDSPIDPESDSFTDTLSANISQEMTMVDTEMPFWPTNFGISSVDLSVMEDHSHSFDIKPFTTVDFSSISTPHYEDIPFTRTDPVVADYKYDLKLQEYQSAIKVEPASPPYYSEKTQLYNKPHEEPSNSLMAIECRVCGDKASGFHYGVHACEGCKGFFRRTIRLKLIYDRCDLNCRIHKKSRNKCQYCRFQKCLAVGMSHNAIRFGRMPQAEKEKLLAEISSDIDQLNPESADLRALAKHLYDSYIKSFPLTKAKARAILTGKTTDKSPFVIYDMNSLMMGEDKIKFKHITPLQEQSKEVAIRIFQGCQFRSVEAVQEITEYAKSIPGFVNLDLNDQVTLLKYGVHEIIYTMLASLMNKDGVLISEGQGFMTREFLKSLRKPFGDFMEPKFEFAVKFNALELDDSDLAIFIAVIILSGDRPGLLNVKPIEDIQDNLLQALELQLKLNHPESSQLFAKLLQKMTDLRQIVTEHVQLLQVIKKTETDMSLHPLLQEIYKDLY
# Procedure, shortened: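 Reporter activation was scored by fluorescence of cleaved LiveBLAzer B/G substrate (1 h, room temperature) in PPARg-bla HEK293H cells previously treated 17 h at 37C with DMSO-dissolved compounds.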
# [3] = target: Peroxisome proliferator-activated receptor gamma (Homo sapiens) (UniProt P37231); assay: qHTS assay to identify small molecule antagonists of the peroxisome proliferator-activated receptor gamma (PPARg) signaling pathway (AID 743191; calls by dose curve; note: nearly all actives have a fitted effect of over 30% in size); details: HEK293H PPARg-UAS-bla, beta-lactamase ratio, antagonist, 17 h; ratio activity, negative = inhibition: at 62.6 µM (top of the series) unless noted
# Procedure, shortened: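 GeneBLAzer PPARg UAS-bla HEK293H cells, 5 h post-plating, exposed to compounds 17 h at 37C. LiveBLAzer B/G FRET substrate added for 1 h at room temperature; beta-lactamase reporter read by fluorescence intensity.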
# [4] = qHTS assay for small molecule agonists of the antioxidant response element (ARE) signaling pathway (AID 743202; active = well fitted activation curve with a large enough effect in the signal ratio in the repeat runs, not every such curve was filed as active; inconclusive = weak or mixed curves, or effect the other way; inactive = no such curve, though single readings can be large or run the other way; the % refers to the signal ratio); details: HepG2 ARE-bla reporter, beta-lactamase FRET, 16 h; activation: at 73.3 µM (top of the series) unless noted
# Procedure, shortened: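 HepG2 ARE-bla reporter line, 2,000 cells/well; 5 h preincubation 37 C/5% CO2; compound (DMSO) 16 h 37 C; B/G FRET substrate 2 h RT; fluorescence intensity.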
# [5] = qHTS assay for small molecule activators of the heat shock response signaling pathway - cell viability counter screen (AID 743209); details: HSE-bla HeLa viability, CellTiter-Glo luminescence, 5 h; activity change, negative = cytotoxicity: at 62.6 µM (top of the series) unless noted; note: nearly all actives have a fitted effect of over 50% in size
# Procedure, shortened: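 Viability of HSE-bla HeLa cells is measured with CellTiter-Glo in the wells already used for the reporter read. Compound exposure lasts 5 h at 37 C, and luminescence is read after 30 min at room temperature.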
# [6] = qHTS assay for small molecule activators of the heat shock response signaling pathway (AID 743210; active = well fitted activation curve with a large enough effect in the signal ratio in the repeat runs, with a control signal flat, not every such curve was filed as active; inconclusive = weak or mixed curves; the % refers to the signal ratio;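 for activation: HeLa cells with beta-lactamase reporter driven by heat shock elements; % is set by controls: 0 for no effect and ±100 for the full control effect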); details: HeLa HSE-bla reporter, beta-lactamase ratio, 5 h; activation: at 62.6 µM (top of the series)
# Procedure, shortened: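 Beta-lactamase reporter read-out: FRET substrate fluorescence after 2.5 h at RT, following 5 h compound treatment at 37 C of HeLa cells carrying HSE-driven bla reporter; quantitative HTS format.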
# [7] = qHTS assay to identify small molecule agonists of the peroxisome proliferator-activated receptor delta (PPARd) signaling pathway - cell viability counter screen (AID 743211); details: PPARd-bla HEK293H viability, CellTiter-Glo luminescence, 17 h; activity change, negative = cytotoxicity: at 62.6 µM (top of the series); note: nearly all actives have a fitted effect of over 55% in size
# Procedure, shortened: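 Viability of GeneBLAzer PPARd UAS-bla HEK293H cells was assessed after 17 h compound incubation at 37C, using CellTiter-Glo reagent added after the reporter read and luminescence recorded 30 min later.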
# [8] = qHTS assay to identify small molecule antagonists of the peroxisome proliferator-activated receptor delta (PPARd) signaling pathway - cell viability counter screen (AID 743213); details: PPARd-bla HEK293H viability, CellTiter-Glo luminescence, 17 h; viability change, negative = cytotoxic: at 62 µM (top of the series) unless noted; note: nearly all actives have a fitted effect of over 50% in size
# Procedure, shortened: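 Agonist-stimulated (L165041, 300 nM final) HEK293H PPARd UAS-bla cells are exposed to compounds for 17 h at 37 C, and ATP-based luminescence (CellTiter-Glo) from the same wells reports cytotoxicity.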
# [9] = target: Peroxisome proliferator-activated receptor delta (Homo sapiens) (UniProt Q03181); assay: qHTS assay to identify small molecule antagonists of the peroxisome proliferator-activated receptor delta (PPARd) signaling pathway (AID 743215; active = well fitted inhibition curve with a large enough effect in the signal ratio in the repeat runs, not every such curve was filed as active; inconclusive = weak or mixed curves, or effect the other way; inactive = no such curve, though single readings can be large or run the other way; the % refers to the signal ratio); details: HEK293H PPARd-UAS-bla, beta-lactamase FRET ratio, antagonist, 17 h; ratio activity, negative = inhibition: at 62 µM (top of the series) unless noted
# Chain of UniProt Q03181 (Q03181 whole entry, looked up): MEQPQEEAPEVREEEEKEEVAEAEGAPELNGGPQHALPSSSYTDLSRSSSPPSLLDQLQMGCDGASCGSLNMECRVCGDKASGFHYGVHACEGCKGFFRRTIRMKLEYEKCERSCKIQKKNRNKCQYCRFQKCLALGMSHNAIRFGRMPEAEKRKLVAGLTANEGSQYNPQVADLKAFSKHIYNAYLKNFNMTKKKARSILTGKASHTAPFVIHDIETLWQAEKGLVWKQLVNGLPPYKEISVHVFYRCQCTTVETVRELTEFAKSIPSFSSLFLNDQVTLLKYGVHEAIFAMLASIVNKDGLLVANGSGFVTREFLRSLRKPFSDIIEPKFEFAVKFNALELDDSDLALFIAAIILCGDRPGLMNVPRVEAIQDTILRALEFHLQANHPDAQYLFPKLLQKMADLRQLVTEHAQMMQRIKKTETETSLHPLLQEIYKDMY
# Procedure, shortened: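 Plated HEK293H PPARd-bla cells rested 5 h at 37 C and 5% CO2. Compound, then agonist L165041 at 300 nM final, was added; 17 h at 37 C followed. Substrate loading, 2 h room temperature, fluorescence measured.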
# [10] = target: Bile acid receptor (Homo sapiens) (UniProt Q96RI1); assay: qHTS assay to identify small molecule antagonists of the farnesoid-X-receptor (FXR) signaling pathway (AID 743217; active = well fitted inhibition curve with a large enough effect in the signal ratio in the repeat runs, not every such curve was filed as active; inconclusive = weak or mixed curves, or effect the other way; inactive = no such curve, though single readings can be large or run the other way; the % refers to the signal ratio); details: HEK293T FXR-UAS-bla, beta-lactamase ratio, CDCA-stimulated, 16 h; activity change, negative = inhibition: at 62.6 µM (top of the series) unless noted
# Chain of UniProt Q96RI1 (Q96RI1 whole entry, looked up): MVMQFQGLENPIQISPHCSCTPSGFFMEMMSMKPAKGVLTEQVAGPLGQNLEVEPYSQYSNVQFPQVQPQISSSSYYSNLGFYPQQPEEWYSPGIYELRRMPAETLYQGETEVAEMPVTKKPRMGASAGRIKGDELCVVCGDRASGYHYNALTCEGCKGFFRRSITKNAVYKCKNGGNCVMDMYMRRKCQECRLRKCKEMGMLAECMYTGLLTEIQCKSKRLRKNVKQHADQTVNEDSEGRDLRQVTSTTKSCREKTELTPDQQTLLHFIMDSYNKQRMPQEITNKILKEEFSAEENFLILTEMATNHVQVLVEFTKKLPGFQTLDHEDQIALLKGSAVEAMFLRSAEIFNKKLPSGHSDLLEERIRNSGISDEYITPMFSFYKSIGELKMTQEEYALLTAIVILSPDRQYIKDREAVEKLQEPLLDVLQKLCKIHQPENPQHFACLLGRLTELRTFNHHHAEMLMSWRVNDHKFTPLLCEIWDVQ
# Procedure, shortened: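 Screen of the Tox21 10K library in quantitative HTS format using FXR-UAS-bla HEK 293T reporter cells. Agonist chenodeoxycholic acid, 50 uM final, added with compounds; 16 h incubation at 37 °C; beta-lactamase FRET fluorescence measured.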
# [11] = qHTS assay to identify small molecule agonists of the farnesoid-X-receptor (FXR) signaling pathway - cell viability counter screen (AID 743218); details: FXR-bla HEK293T viability, CellTiter-Glo luminescence, 16 h; viability change, negative = cytotoxic: at 62.6 µM (top of the series) unless noted; note: nearly all actives have a fitted effect of over 45% in size
# Procedure, shortened: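 Viability of FXR-bla HEK 293T cells is measured by ATP-based CellTiter-Glo luminescence following 16 h compound treatment at 37 C and a prior 2 h room-temperature beta-lactamase substrate step.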
# [12] = target: Bile acid receptor (Homo sapiens) (UniProt Q96RI1); assay: qHTS assay to identify small molecule agonists of the farnesoid-X-receptor (FXR) signaling pathway (AID 743220; active = well fitted activation curve with a large enough effect in the signal ratio in the repeat runs, not every such curve was filed as active; inconclusive = weak or mixed curves, or effect the other way; the % refers to the signal ratio; for activation: % is set by controls: 0 for no effect and ±100 for the full control effect); details: HEK293T FXR-UAS-bla, beta-lactamase FRET ratio, 16 h; activation: at 62.6 µM (top of the series) unless noted
# Procedure, shortened: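 FXR-UAS-bla HEK 293T cells carrying a UAS-driven beta-lactamase reporter were plated for 5 h at 37C/5% CO2, then exposed to DMSO-dissolved Tox21 10K compounds for 16 h at 37C. A LiveBLAzer B/G FRET substrate was loaded for 2 h at room temperature before fluorescence reading.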
# [13] = qHTS assay to identify small molecule antagonists of the farnesoid-X-receptor (FXR) signaling pathway - cell viability counter screen (AID 743221; active = well fitted cell-killing curve with a large enough effect in the repeat runs, not every such curve was filed as active; inconclusive = weak or mixed curves, or effect the other way; inactive = no such curve, though single readings can be large or run the other way; note: nearly all actives have a fitted effect of over 50% in size); details: FXR-bla HEK293T viability, CellTiter-Glo luminescence, 16 h; activity change, negative = cytotoxicity: at 62.6 µM (top of the series)
# Procedure, shortened: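 Quantitative HTS of the Tox21 10K library run in parallel with the beta-lactamase reporter read. HEK 293T cells carrying a UAS-driven bla reporter got compound and 50 uM CDCA (final) for 16 h; ATP-based luminescence followed.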
# [14] = target: Vitamin D3 receptor (Homo sapiens) (UniProt P11473); assay: qHTS assay to identify small molecule agonists of the vitamin D receptor (VDR) signaling pathway (AID 743222; calls by dose curve; for activation: % is set by controls: 0 for no effect and ±100 for the full control effect); details: HEK293T VDR-UAS-bla, beta-lactamase FRET ratio, 16 h; activation: at 63.5 µM (top of the series) unless noted
# Chain of UniProt P11473 (P11473 whole entry, looked up): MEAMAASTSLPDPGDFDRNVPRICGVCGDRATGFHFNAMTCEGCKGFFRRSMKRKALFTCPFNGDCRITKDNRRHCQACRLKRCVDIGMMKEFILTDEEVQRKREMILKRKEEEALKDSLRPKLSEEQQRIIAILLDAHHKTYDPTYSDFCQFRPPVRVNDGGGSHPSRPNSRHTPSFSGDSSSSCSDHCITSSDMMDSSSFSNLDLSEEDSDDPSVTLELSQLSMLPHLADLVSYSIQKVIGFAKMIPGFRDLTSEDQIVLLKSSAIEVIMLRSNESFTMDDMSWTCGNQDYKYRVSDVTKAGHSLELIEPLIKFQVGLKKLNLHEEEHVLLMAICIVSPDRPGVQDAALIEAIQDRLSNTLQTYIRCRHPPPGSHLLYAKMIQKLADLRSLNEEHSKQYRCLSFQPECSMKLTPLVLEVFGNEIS
# Procedure, shortened: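 Fluorescence from cleaved LiveBLAzer B/G FRET substrate served as readout. VDR-bla cells had been treated 16 h at 37C with test compounds in DMSO, following a 4 h settling period, and substrate was loaded for 2 h at RT.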
# [15] = target: Vitamin D3 receptor (Homo sapiens) (UniProt P11473); assay: qHTS assay to identify small molecule antagonists of the vitamin D receptor (VDR) signaling pathway (AID 743223; active = well fitted inhibition curve with a large enough effect in the signal ratio in the repeat runs, not every such curve was filed as active; inconclusive = weak or mixed curves, or effect the other way; inactive = no such curve, though single readings can be large or run the other way; the % refers to the signal ratio); details: VDR-UAS-bla HEK293T, beta-lactamase FRET ratio, 16 h; activity change, negative = inhibition: at 61 µM (top of the series) unless noted
# Procedure, shortened: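 Fluorescence from LiveBLAzer B/G FRET substrate, read after 2 h at room temperature, reflects beta-lactamase reporter activity in VDR-bla cells treated 16 h at 37C with compounds and agonist 1alpha,25-dihydroxyvitamin D3 (3 nM final).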
# [16] = qHTS assay to identify small molecule agonists of the vitamin D receptor (VDR) signaling pathway - cell viability counter screen (AID 743224); details: VDR-bla HEK293T viability, CellTiter-Glo luminescence, 16 h; activity change, negative = cytotoxicity: at 62.6 µM (top of the series) unless noted; note: nearly all actives have a fitted effect of over 50% in size
# Procedure, shortened: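 Compounds were pin-transferred onto VDR-bla cells plated 4 h earlier; following 16 h incubation at 37C, cell viability was quantified by CellTiter-Glo luminescence after 30 min at room temperature.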
# [17] = qHTS assay to identify small molecule antagonists of the vitamin D receptor (VDR) signaling pathway - cell viability counter screen (AID 743225); details: VDR-bla HEK293T viability, CellTiter-Glo luminescence, 16 h; viability change, negative = cytotoxic: at 61 µM (top of the series) unless noted; note: nearly all actives have a fitted effect of over 50% in size
# Procedure, shortened: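 Cells (VDR-UAS-bla HEK 293T) are plated, rested 4 h at 37C, dosed with compound and 3 nM final 1-alpha,25-dihydroxy vitamin D3, and incubated 16 h. Viability is taken from CellTiter-Glo luminescence in the reporter wells.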
# [18] = qHTS assay to identify small molecule antagonists of the peroxisome proliferator-activated receptor gamma (PPARg) signaling pathway - cell viability counter screen (AID 743194); details: PPARg-bla HEK293H viability, CellTiter-Glo luminescence, 17 h, co-treated with 50 nM rosiglitazone; activity change, negative = cytotoxicity: at 62.6 µM (top of the series) unless noted; note: nearly all actives have a fitted effect of over 55% in size
# Procedure, shortened: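 Cytotoxicity counter screen in PPARg-bla HEK293H cells, same wells as reporter assay. Compounds plus 50 nM rosiglitazone (final) for 17 h at 37 C, then viability read by CellTiter-Glo luminescence.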
# [19] = target: Peroxisome proliferator-activated receptor delta (Homo sapiens) (UniProt Q03181); assay: qHTS assay to identify small molecule agonists of the peroxisome proliferator-activated receptor delta (PPARd) signaling pathway (AID 743212; calls by dose curve); details: HEK293H PPARd-UAS-bla, beta-lactamase FRET ratio, 17 h; activation: at 62.6 µM (top of the series) unless noted
# Procedure, shortened: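 Read-out: beta-lactamase FRET fluorescence after 2 h room-temperature incubation with LiveBLAzer B/G substrate. Cells were HEK293H carrying a UAS-bla reporter for PPARd, treated at 37 C with DMSO-dissolved compounds.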
# [20] = qHTS assay for small molecule agonists of the antioxidant response element (ARE) signaling pathway - cell viability counter screen (AID 743203; calls by dose curve; note: nearly all actives have a fitted effect of over 55% in size); details: ARE-bla HepG2 viability, CellTiter-Glo luminescence, 16 h; viability change, negative = cytotoxic: at 73.3 µM (top of the series)
# Procedure, shortened: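 Viability counter screen: stably transfected ARE-bla HepG2 line, 16 hrs compound exposure at 37C/5% CO2, ATP-based CellTiter-Glo luminescence measured in the reporter wells.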
# Potency is the fitted concentration of half-maximal effect; tags give direction and shape of the fitted curve or compound fluorescence and quenching.
compound,measurement,setting,value
O=C1C=CC(=O)N1c1ccc(Cc2ccc(N3C(=O)C=CC3=O)cc2)cc1,Potency,[1],"inconclusive [falling, single point]"
same,Potency,[2],"inconclusive [activator, single point]"
same,Potency,[3],"inconclusive [rising, partial curve]"
same,Potency,[4],"inconclusive [falling, full curve]"
same,Potency,[5],active: 17.4 µM
same,Potency,[6],inconclusive
same,Potency,[7],active: 38.9 µM
same,Potency,[8],active: 34.7 µM
same,Potency,[9],"inconclusive [inhibitor, single point]"
same,Potency,[10],inconclusive
same,Potency,[11],"inconclusive [cytotoxic, full curve]"
same,activation,[12],inconclusive: 9.13%
same,Potency,[13],"inconclusive [falling, single point]"
same,activation,[14],inconclusive: 32.7%
same,Potency,[15],"inconclusive [rising, full curve, poor fit]"
same,Potency,[16],active: 17.4 µM
same,Potency,[17],active: 21.9 µM
CCCCCCCCOC(=O)c1cc(O)c(O)c(O)c1,Potency,[1],"inconclusive [falling, single point]"
same,activation,[2],inconclusive: 18.9%
same,Potency,[3],"inconclusive [rising, full curve, poor fit]"
same,Potency,[5],inconclusive [cytotoxic]
same,Potency,[6],inconclusive
same,Potency,[8],active: 43.6 µM
same,Potency,[9],active: 49 µM
same,Potency,[10],"inconclusive [inhibitor, single point]"
same,Potency,[11],"inconclusive [cytotoxic, single point]"
same,activation,[12],inconclusive: 9.3%
same,Potency,[13],inconclusive
same,Potency,[14],inactive
same,Potency,[15],active: 54.9 µM
same,Potency,[16],active: 24.5 µM
same,Potency,[17],active: 27.5 µM
Cc1cc(CCN2CCN(c3nsc4ccccc34)CC2)cc2c1NC(=O)CC2(C)C,Potency,[1],active: 27.3 µM
same,Potency,[2],"inconclusive [fluorescent, partial curve]"
same,Potency,[3],"inconclusive [rising, partial curve]"
same,Potency,[18],active: 19.5 µM
same,Potency,[5],"inconclusive [cytotoxic, partial curve, poor fit]"
same,Potency,[6],"inconclusive [rising, single point]"
same,Potency,[7],active: 21.9 µM
same,Potency,[19],inconclusive
same,Potency,[9],active: 19.5 µM
same,Potency,[10],inconclusive [partial curve]
same,Potency,[11],active: 21.9 µM
same,Potency,[12],"inconclusive [rising, partial curve, poor fit]"
same,Potency,[13],active: 38.9 µM
same,Potency,[14],"inconclusive [fluorescent, partial curve]"
same,Potency,[15],inconclusive
same,Potency,[16],active: 17.4 µM
same,Potency,[17],active: 19.5 µM
CN1CCC[C@@H]1CCO[C@](C)(c1ccccc1)c1ccc(Cl)cc1,Potency,[1],"inconclusive [falling, single point]"
same,Potency,[18],"inconclusive [cytotoxic, partial curve]"
same,Potency,[4],"inconclusive [falling, single point]"
same,Potency,[20],active: 29.8 µM
same,Potency,[6],inactive
same,Potency,[8],active: 26.6 µM
same,"activity change, negative = inhibition",[10],inconclusive: -24.6%
same,Potency,[11],"inconclusive [cytotoxic, partial curve, poor fit]"
same,Potency,[13],active: 29.8 µM
same,Potency,[16],"inconclusive [cytotoxic, full curve]"
Cc1cc(Nc2ccc(O)cc2)ccc1N,Potency,[1],"inconclusive [falling, partial curve]"
same,Potency,[3],inconclusive
same,Potency,[18],active: 12.2 µM
same,Potency,[4],"inconclusive [falling, full curve]"
same,Potency,[6],inconclusive
same,Potency,[19],inactive
same,Potency,[10],"inconclusive [activator, full curve, poor fit]"
same,Potency,[11],"inconclusive [cytotoxic, full curve]"
same,Potency,[17],inactive
